The campaign covered roughly 350,000 compounds. About 260 (0.074%) were called active. Inconclusive means that the source gave no clear call. Such entries were picked first, then a sample of the others. The call rests on the fitted dose curve; in most records, active means well fitted inhibition curve with a large enough effect; inconclusive means small, poorly fitted or top-dose-only effect; inactive means no such curve, though single readings can be large or run the other way. Where the call is inconclusive, the potency comes from a doubtful curve fit.
What follows are compounds tested against Ferritin light chain (Equus caballus) (UniProt P02791) (assay: qHTS Assay for Identification of Novel General Anesthetics). Settings: apoferritin/1-aminoanthracene competitive binding, fluorescence; series mostly up to 77.5 µM.
UniProt P02791, sequence (P02791 whole entry, looked up): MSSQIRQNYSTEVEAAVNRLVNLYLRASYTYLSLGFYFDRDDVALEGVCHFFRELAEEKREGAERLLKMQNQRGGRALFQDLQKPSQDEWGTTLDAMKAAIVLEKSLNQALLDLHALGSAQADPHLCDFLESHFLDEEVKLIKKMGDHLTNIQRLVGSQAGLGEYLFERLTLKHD
Procedure, shortened: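 10 uM apoferritin + 50% sat. 1-AMA, PBS; cpd 10 min RT; Ex380/Em535 endpoint; normalized to free probe vs complex; 4-param Hill fit; propofol titration as pos. ctrl.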
With COC(=O)c1cc(=O)n(Cc2ccco2)c(=Nc2ccc(F)cc2)s1 the Potency was inconclusive: 17.8 µM [inhibitor, partial curve]. In the case of COc1ccccc1OCc1nc(-c2cccc([N+](=O)[O-])c2)no1, the Potency is reported as inconclusive: 31.6 µM [inhibitor, partial curve]. With O=c1[nH]c(CCC2CCCC2)nc2ccccc12 the Potency was inconclusive: 7.94 µM [inhibitor, partial curve]. COc1ccc(CCNC(=O)c2ccc3c(Cl)c4c(nc3c2)CCCC4)c(OC)c1 was tested, and the Potency was inconclusive: 50.1 µM [inhibitor, single point]. With C=CCOc1ccc(CNc2ccc(NC(=O)CC(C)C)cc2)cc1OC the Potency was inconclusive: 50.1 µM [inhibitor, single point]. For CC1CCC(NC(=O)c2ccc(CS(=O)(=O)c3c(Cl)cccc3Cl)o2)CC1 (centres undefined), the Potency was inconclusive: 28.2 µM [inhibitor, single point]. O=C(CNc1cccc(C(F)(F)F)c1)N/N=C/c1cccc(Br)c1 was tested, and the Potency was inconclusive: 35.5 µM [inhibitor, single point]. For CCN(CC)C(=O)Cn1cc(/C=C(\C#N)C(=O)N2CCN(c3ccccc3)CC2)c2ccccc21, the Potency was inconclusive: 39.8 µM [inhibitor, partial curve]. With CCN1/C(=C/c2ccc3ccccc3[n+]2CC)C=Cc2ccccc21 the Potency was inconclusive: 20 µM [inhibitor, partial curve]. In the case of Cn1nc(C(=O)OCC(=O)Nc2cccc(S(=O)(=O)N3CCCC3)c2)c2ccccc2c1=O, the Potency is reported as inconclusive: 15.8 µM [inhibitor, partial curve]. For COc1ccc(C2CC2/C(C)=N/OC(=O)c2ccc(F)cc2)cc1 (centres undefined), the Potency was inconclusive: 35.5 µM [inhibitor, partial curve]. In the case of COc1ccc(CNC(=O)Cn2nc(N3CCN(c4ccccc4)CC3)ccc2=O)c(OC)c1, the Potency is reported as inconclusive: 31.6 µM [inhibitor, partial curve]. With Cc1ncc(C23CC4CC(CC(C4)C2)C3)[nH]1 the Potency was inconclusive: 14.1 µM [inhibitor, partial curve]. O=C1c2ccccc2C(=O)N1CCCCN(C(=O)c1cccc([N+](=O)[O-])c1)c1ccc(Cl)cc1 was tested, and the Potency was inconclusive: 35.5 µM [inhibitor, partial curve]. CCN1CCN(c2nc3c(C)cccn3c(=O)c2/C=C(\C#N)S(=O)(=O)c2ccc(C)cc2)CC1 was tested, and the Potency was inconclusive: 35.5 µM [inhibitor, partial curve]. With CCNc1cc(S(=O)(=O)C(F)(F)F)ccc1N the Potency was inconclusive: 56.2 µM [inhibitor, single point]. In the case of CCOC(=O)C1=C(O)/C(=C\c2ccc(CNC(=O)C(=O)Nc3ccccc3)o2)N=C1C, the Potency is reported as inconclusive: 50.1 µM [inhibitor, single point]. For Cc1[nH]nc2c1C(c1ccc(-c3ccccc3C#N)o1)C(C#N)=C(N)O2 (centres undefined), the Potency was inconclusive: 35.5 µM [inhibitor, partial curve]. With CCn1cc(C(=O)NCc2ccc(C)cc2)c(=O)c2cc(S(=O)(=O)N(C)C3CCCCC3)ccc21 the Potency was inconclusive: 10 µM [inhibitor, partial curve]. With N=C(N)N=Nc1c(O)[nH]c2ccc(Br)cc12 the Potency was inconclusive: 25.1 µM [inhibitor, single point]. In the case of Cc1cccn2c(=O)c(C=O)c(N3CCN(c4ccccc4)CC3)nc12, the Potency is reported as inconclusive: 15.8 µM [inhibitor, partial curve]. With O=C(CSc1n[nH]c(-c2ccccc2)n1)Nc1ncccn1 the Potency was “inactive”. In the case of CCOC(=O)c1ccc(NC(=S)N(CCN(C)C)C(C)c2ccncc2)cc1 (centres undefined), the Potency is reported as “inactive”. For Fc1ccc(CSc2nsc(SCc3ccc(F)cc3)n2)cc1, the Potency was inconclusive: 25.1 µM [inhibitor, partial curve]. For Cc1ccc(CN(C)S(=O)(=O)c2c(C)noc2/C=C/N(C)C)cc1, the Potency was “inactive”. With Cc1oc(-c2cccs2)nc1CS(=O)CC(=O)NC1CCCCCC1 (centres undefined) the Potency was inconclusive: 28.2 µM [inhibitor, partial curve]. In the case of CC(C)n1c(/N=C/c2c[nH]c3ccccc23)nc2ccccc21, the Potency is reported as inconclusive: 44.7 µM [inhibitor, single point]. For Cc1ccc(S(=O)(=O)N2CCCC(C(=O)NNCC(=O)Nc3cc(F)ccc3F)C2)cc1 (centres undefined), the Potency was inconclusive: 39.8 µM [inhibitor, single point]. With O=[N+]([O-])c1cccnc1N1CCC(c2cc(-c3cccc(C(F)(F)F)c3)n[nH]2)CC1 the Potency was inconclusive: 31.6 µM [inhibitor, partial curve]. In the case of Cc1cccc(NC(c2ccccc2C)c2ccc3ccc(C)nc3c2O)n1 (centres undefined), the Potency is reported as inconclusive: 7.08 µM [inhibitor, partial curve]. With O=C(CN1CCC(Cc2ccccc2)CC1)NC(=O)NCc1ccco1 the Potency was inconclusive: 44.7 µM [inhibitor, single point]. COC1C=CO[C@@]2(C)Oc3c(C)c(O)c4c(O)c(c(C=NN5CCN(C)CC5)c(O)c4c3C2=O)NC(=O)/C(C)=C\C=CC(C)C(O)[C@@H](C)C(O)C(C)[C@H](OC(C)=O)C1C (some centres undefined) was tested, and the Potency was inconclusive: 28.2 µM [inhibitor, single point]. With COc1ccc(-n2c(-c3ccc(C)cc3)cc3c2CC(C)(C)CC3=O)c(OC)c1 the Potency was “inactive”. With Cc1ccccc1C(=O)NCCc1csc(-c2ccc(C(F)(F)F)cc2)n1 the Potency was inconclusive: 17.8 µM [inhibitor, partial curve]. With Cc1nc(C)c(-c2ccc(SCc3ccc([N+](=O)[O-])cc3)nn2)s1 the Potency was inconclusive: 39.8 µM [inhibitor, partial curve]. For CC(=O)CC(=O)NC1C2CC3CC(C2)CC1C3 (centres undefined), the Potency was inconclusive: 35.5 µM [inhibitor, partial curve]. In the case of Cc1ccc(CNC(=O)CSc2c3c(nc4cc(Cl)ccc24)CCCC3)cc1, the Potency is reported as inconclusive: 14.1 µM [inhibitor, partial curve]. In the case of CC(C)Cn1cnc2c(c(-c3ccccc3)c(-c3ccccc3)n2Cc2ccco2)c1=N, the Potency is reported as “inactive”. With C(=N\N(Cc1ccccc1)c1ccccc1)/c1cccnc1 the Potency was “inactive”.

Source: PubChem BioAssay AID485281 (National Center for Advancing Translational Sciences (NCATS), 2010)
Further: nearly all actives have a fitted effect of over 20% in size.
Potency means the concentration at half of the fitted maximal effect; tags describe the fitted curve by direction and shape.
